# Results: US7592316B2, “Peptides as NS3-serine protease inhibitors of hepatitis C virus” (Schering Corporation, priority 2000, dated 2009)
# pKi: −log10 of the molar value. *1 amine or outer side, *2 acyl side, *3 side chain or, on linkers, in order; H or OH if unused. Where a SMILES comes first, the peptide text is derived from it. [ ]: non-standard residue; d: D form. The star is where a group is joined. ξ: configuration not given here. Pro(3R,4S-CMe2) = CC1(C)[C@@H]2[C@@H](C(=O)O)NC[C@@H]21; Pro(trans-4-Ph) = O=C(O)[C@@H]1C[C@@H](c2ccccc2)CN1; Adamantane1carbonyl = O=C(C12CC3CC(CC(C3)C1)C2)*; Pro(4,4-S(CH2)3S) = O=C(O)[C@@H]1CC2(CN1)SCCCS2; Propanoyl(3,3-Ph2) = O=C(CC(c1ccccc1)c1ccccc1)*; ξPhg(3,5-(OMe)2) = COc1cc(OC)cc(C(N)C(=O)O)c1; Gly(1-Me-cHex) = CC1([C@H](N)C(=O)O)CCCCC1; Pro(4-spirocPr) = O=C(O)[C@@H]1CC2(CC2)CN1; Benzoyl(4-COOH) = O=C(O)c1ccc(C(=O)*)cc1; Neopentyloxycarbonyl = CC(C)(C)COC(=O)*; Phenylacetyl(4-Me) = Cc1ccc(CC(=O)*)cc1; X19 = CCC[C@@H](N[*:1])C(=O)C(=O)[*:2]; X25 = O=C(O)c1c(F)c(F)c(F)c(F)c1C(=O)*; X58 = O=C(O)c1c(F)c(F)c(F)c(C(=O)*)c1F; Isobutyloxycarbonyl = CC(C)COC(=O)*; ξPhg(3-Cl) = NC(C(=O)O)c1cccc(Cl)c1; ξPro(4R-Me) = C[C@H]1CNC(C(=O)O)C1; Hyp = O=C(O)[C@@H]1C[C@@H](O)CN1; X2 = CCCC(N[*:1])C(=O)C(=O)[*:2]; dPhg = N[C@@H](C(=O)O)c1ccccc1; X26 = c1ccc(Oc2ccc(N*)cc2)cc1; Chg = N[C@H](C(=O)O)C1CCCCC1; Phg = N[C@H](C(=O)O)c1ccccc1; Tle = CC(C)(C)[C@H](N)C(=O)O; X20 = CC(C)[C@@H](C)OC(=O)*; ξChg = NC(C(=O)O)C1CCCCC1; ξPhg = NC(C(=O)O)c1ccccc1; Carboxymethyl = O=C(O)C*; X43 = Cc1cccc(C(=O)*)c1C; ξNle = CCCCC(N)C(=O)O; CO = O=C([*:1])[*:2]; ξV = CC(C)C(N)C(=O)O; Bn = c1ccc(C*)cc1; OtBu = CC(C)(C)O*; tBu = CC(C)(C)*; MEM = COCCOC*; OAll = C=CCO*
# Molecular target: HCV NS3/NS4A protease (strain 1a) (Hepatitis C virus genotype 1a, UniProt P27958)
# Experiment: biochemical
# Settings: Compounds prepared by Solid Phase Synthesis, Table 3; read-out: Ki* CLASS
row,Structure (SMILES),pKi
1,CCCC(NC(=O)[C@@H]1C[C@@H](OC(C)(C)C)CN1C(=O)[C@@H](NC(=O)c1ccc(C(=O)O)cc1)C1CCCCC1)C(=O)C(=O)NCC(=O)NC(C(N)=O)c1cccc(Cl)c1 (stereo partly shown) ({Benzoyl(4-COOH)}-[Chg][Hyp](tBu)[X2]G[ξPhg(3-Cl)]-NH2),6.00 to 7.00
2,CCCC(NC(=O)[C@@H]1C[C@@H](OC(C)(C)C)CN1C(=O)[C@@H](NC(=O)c1c(F)c(F)c(F)c(F)c1C(=O)O)C1CCCCC1)C(=O)C(=O)NCC(=O)N[C@H](CC(=O)OC(C)(C)C)C(N)=O (stereo partly shown) (X25-[Chg][Hyp](tBu)[X2]G[dD](OtBu)-NH2),< 6.00
3,CCCC(NC(=O)[C@@H]1C[C@@H](OC(C)(C)C)CN1C(=O)[C@@H](NC(=O)c1c(F)c(F)c(F)c(F)c1C(=O)O)C(C)(C)C)C(=O)C(=O)NCC(=O)N[C@H](C(N)=O)c1ccccc1 (stereo partly shown) (X25-[Tle][Hyp](tBu)[X2]G[Phg]-NH2),6.00 to 7.00
4,"CCCCC(NC(=O)CNC(=O)C(=O)C(CCC)NC(=O)[C@@H]1C[C@@H](OCc2ccccc2)CN1C(=O)C(NC(=O)CC(c1ccccc1)c1ccccc1)C1CCCCC1)C(N)=O (stereo partly shown) ({Propanoyl(3,3-Ph2)}-[ξChg][Hyp](Bn)[X2]G[ξNle]-NH2)",< 6.00
5,"CCCC(NC(=O)[C@@H]1C[C@@H](O)CN1C(=O)[C@@H](NC(=O)OCC(C)C)C1CCCCC1)C(=O)C(=O)NCC(=O)NC(C(N)=O)c1cc(OC)cc(OC)c1 (stereo partly shown) (Isobutyloxycarbonyl-[Chg][Hyp][X2]G[ξPhg(3,5-(OMe)2)]-NH2)",6.00 to 7.00
6,CCCCC(NC(=O)CNC(=O)C(=O)C(CCC)NC(=O)[C@@H]1C[C@@H](OCC(=O)O)CN1C(=O)C(NC(=O)Cc1ccc(C)cc1)C1CCCCC1)C(N)=O (stereo partly shown) ({Phenylacetyl(4-Me)}-[ξChg][Hyp](Carboxymethyl)[X2]G[ξNle]-NH2),< 6.00
7,CCCC(NC(=O)[C@@H]1C[C@@H](OCc2ccccc2)CN1C(=O)C(NC(=O)OCC(C)C)C(C)C)C(=O)C(=O)NCC(=O)NC(C(N)=O)c1ccccc1 (stereo partly shown) (Isobutyloxycarbonyl-[ξV][Hyp](Bn)[X2]G[ξPhg]-NH2),6.00 to 7.00
8,CCCC(NC(=O)[C@@H]1C[C@@H](OCc2ccccc2)CN1C(=O)C(NC(=O)c1cccc(C)c1C)C1CCCCC1)C(=O)C(=O)NCC(=O)N[C@@H](C(N)=O)c1ccccc1 (stereo partly shown) (X43-[ξChg][Hyp](Bn)[X2]G[dPhg]-NH2),6.00 to 7.00
9,CCCCC(NC(=O)CNC(=O)C(=O)C(CCC)NC(=O)[C@@H]1C[C@@H](OCOCCOC)CN1C(=O)C(NC(=O)C12CC3CC(CC(C3)C1)C2)C1CCCCC1)C(N)=O (stereo partly shown) (Adamantane1carbonyl-[ξChg][Hyp](MEM)[X2]G[ξNle]-NH2),< 6.00
10,CCCC(NC(=O)[C@@H]1C[C@@H](OC(C)(C)C)CN1C(=O)[C@@H](NC(=O)c1c(F)c(F)c(F)c(C(=O)O)c1F)C1CCCCC1)C(=O)C(=O)NCC(=O)NC(C(N)=O)c1cccc(Cl)c1 (stereo partly shown) (X58-[Chg][Hyp](tBu)[X2]G[ξPhg(3-Cl)]-NH2),6.00 to 7.00

# Same assay, conditions: HCV protease continuous assay results, Table 1; read-out: Ki* Range
row,Structure (SMILES),pKi
1,CCCC(NC(=O)[C@@H]1CC2(CN1C(=O)C(NC(=O)OCC(C)C)C1CCCCC1)SCCCS2)C(=O)C(=O)NCC(=O)OC(C)(C)C (stereo partly shown) [Example 90],< 6.00
2,CCCC(NC(=O)[C@@H]1CC2(CC2)CN1C(=O)[C@@H](NC(=O)OCC(C)C)C(C)(C)C)C(=O)C(=O)NCC(=O)N[C@H](C(=O)N(C)C)c1ccccc1 (stereo partly shown) [Example 251] (Isobutyloxycarbonyl-[Tle][Pro(4-spirocPr)][X2]G[Phg]-NMe2),6.00 to 7.00
3,"CCCC(NC(=O)[C@@H]1CC2(CN1C(=O)C(NC(=O)Nc1ccc(Oc3ccccc3)cc1)C1CCCCC1)SCCCS2)C(=O)C(=O)NCC(=O)NC(C(N)=O)c1ccccc1 (stereo partly shown) [Example 102] ({X26-CO}-[ξChg][Pro(4,4-S(CH2)3S)][X2]G[ξPhg]-NH2)",< 6.00
4,CC(C)COC(=O)N[C@H](C(=O)N1C[C@H](OC(C)(C)C)C[C@H]1C(=O)NC1(C(=O)C(=O)NCC(=O)O)CCCCC1)C(C)(C)C [Example 233],< 6.00
5,CCCC(NC(=O)[C@@H]1C[C@@H](c2ccccc2)CN1C(=O)[C@@H](NC(=O)OCC(C)C)C1CCCCC1)C(=O)C(=O)NCC(=O)N[C@H](C(=O)N(C)C)c1ccccc1 (stereo partly drawn) [Example 204] (Isobutyloxycarbonyl-[Chg][Pro(trans-4-Ph)][X2]G[Phg]-NMe2),6.00 to 7.00
6,CCCCC(NC(=O)[C@@H]1C[C@@H](OC(C)(C)C)CN1C(=O)[C@@H](NC(=O)OCC(C)C)C(C)(C)C)C(=O)C(=O)NCC(=O)N[C@H](CN)c1ccccc1 (stereo partly shown) [Example 341],< 6.00
7,C=CCC1CCN(C(=O)[C@@H](NC(=O)OCC(C)C)C2CCCCC2)C1C(=O)NC(CCC)C(=O)C(=O)NCC(=O)NC(C(=O)OC(C)(C)C)c1ccccc1 (stereo partly shown) [Example 163],< 6.00
8,C=CCOC(=O)CNC(=O)C(=O)C(CCC)NC(=O)[C@@H]1CCCN1C(=O)[C@@H](NC(=O)[C@@H](NC(C)=O)C(C)C)C(C)C (stereo partly shown) [Example 35] (Ac-VVP[X2]G-OAll),< 6.00

# Same assay, conditions: Table 4; HCV NS3/NS4A protease, spectrophotometric assay, 30° C., pH 6.5; read-out: Ki* Range
row,Structure (SMILES),pKi
1,CCCC(NC(=O)C1C[C@@H](C)CN1C(=O)[C@@H](NC(=O)OCC(C)(C)C)C1CCCCC1)C(=O)C(=O)NCC(=O)N[C@H](C(=O)O)c1ccccc1 (stereo partly drawn) (Neopentyloxycarbonyl-[Chg][ξPro(4R-Me)][X2]G[Phg]-OH),6.00 to 7.00
2,"CCC[C@@H](NC(=O)[C@@H]1[C@@H]2[C@H](CN1C(=O)[C@@H](NC(=O)O[C@H](C)C(C)C)C1(C)CCCCC1)C2(C)C)C(=O)C(=O)NCC(=O)N[C@H](C(=O)N(C)C)c1ccccc1 (X20-[Gly(1-Me-cHex)][Pro(3R,4S-CMe2)][X19]G[Phg]-NMe2)",7.00 to 9.00

# Same assay, conditions: Table 5; HCV NS3/NS4A protease, 30° C., pH 6.5; read-out: Ki* Range
row,pKi,Structure (SMILES)
1,< 6.00,CCCC(NC(=O)[C@@H]1C[C@@H](OC(C)(C)C)CN1C(=O)[C@@H](NC(=O)OC(C)(C)C)C1CCCCC1)C(=O)C(=O)NCCC(=O)OC(C)(C)C (stereo partly shown)

# Same assay, conditions: Table 5; HCV NS3/NS4A protease, spectrophotometric assay, 30° C., pH 6.5; read-out: Ki* Range
row,pKi,Structure (SMILES)
1,< 6.00,CCC[C@@H](NC(=O)C1C2CCC(C2)N1C(=O)[C@@H](NC(=O)OC(C)(C)C)C(C)(C)C)C(=O)C(=O)OC(C)(C)C (stereo partly shown)
